Data reported in PubChem BioAssay AID1362 (SRMLSC, 2008).
The other results are listed elsewhere or left out. Shown are side measurements of this screen, not its main read-out; they come without a call. The list favours compounds with an active or inconclusive main result.

test: growth inhibition of WT strain, primary screen, mitochondrial fusion inhibitor project, WT and mutant strains, chemical genetic (AID 1362); conditions: mitochondrial fusion phenotypic screen, at 10 µM; note: tested in S. cerevisiae

Row | SMILES | inhibition
1 | CCN(CC)c1nc(-c2ccccn2)nc(-c2ccccc2)c1C#N | 55.4%
2 | Clc1ccc2ncc(-c3nnnn3-c3ccccc3)c(-c3ccccc3)c2c1 | 15.1%
3 | Cc1cc(Nc2nc(Cl)c(Cl)cc2Cl)n(-c2ccccc2)n1 | 1.73%
4 | Cc1ccc(Cl)cc1NC(=S)N1CCC(c2ccccc2)C1 (centres undefined) | 22.9%
5 | Cc1ccccc1/C(N)=N/OC(=O)N1c2ccccc2Sc2ccccc21 | -8.53%
6 | Cc1nc2ccc(S(=O)(=O)Nc3cccc(-c4nc5cccnc5s4)c3)cc2s1 | 26.1%
7 | CCCn1nnc(NC(=O)c2ccc(-c3cccc(Cl)c3)o2)n1 | -7.65%
8 | CCCCS(=O)(=O)/C=C\C=C/S(=O)(=O)CCCC | 84.2%
9 | Cc1cccc(Cn2nc(-n3cccc3)c3c(C)cc(C)nc32)c1 | 11.2%
10 | N#CC1=C(N)C2=CCCC[C@H]2[C@H](c2ccc(Br)cc2)C1(C#N)C#N | 15.6%
11 | C[N+]1(CC(=O)Nc2ccc(F)cc2)CCN(C(=O)c2ccco2)CC1 | 20.9%
12 | CCCN(CCC)C(=S)NC(=O)c1ccc(-c2ccccc2)cc1 | 59.3%
13 | C1=C(CCNc2ncnc3c2[nH]c2ccccc23)CCCC1 | 76.9%
14 | Brc1ccc(-c2nnc(-c3ccccc3)c(N3CCSCC3)n2)cc1 | 40.7%
15 | CCCCOP(=O)(c1ccc(N(C)C)cc1)C(Nc1ccccc1)c1ccccc1 (centres undefined) | 27.6%
16 | CC1/C(=N/O)CC(c2ccccc2)N(C)C1c1ccccc1 (centres undefined) | 98.4%
17 | CCCCCOc1ccc(Br)cc1CSC(=N)N | 35.5%
18 | COc1cc(CNn2c(C)n[nH]c2=S)cc(Cl)c1OCc1ccc(F)cc1 | 30.5%
19 | CC(C)=C1C2CCC1C1C(=O)N(c3nc(-c4ccccc4)c(C)s3)C(=O)C21 (centres undefined) | 15.3%
20 | CCCCn1c(-c2csc(C(C)C)c2)n[nH]c1=S | 55.6%
21 | CCc1ccc(OCc2n[nH]c(=S)n2Cc2ccccc2)cc1 | 44.2%
22 | CCOC(=O)C1=C(C)Nc2sc(C(=O)c3ccc(F)cc3)c(N)c2C1c1ccc(C(=O)OC)cc1 (centres undefined) | 3.39%
23 | CC(C)(C)c1cc(C(c2cccnc2)N2CCN(CCO)CC2)cc(C(C)(C)C)c1O (centres undefined) | 46.2%
24 | COc1ccc(C)cc1NC(=S)NC(C)c1ccc(OC)c(OC)c1 (centres undefined) | 20.3%
25 | CCCCc1c(C)nc2ccc(Br)cc2c1SCCC#N | 19.8%
26 | CN(/N=C\c1ccc(O)c(O)c1)c1nc(-c2ccccc2)cc(-c2ccccc2)n1 | 57.3%
27 | CCOC(=O)c1c(C)[nH]c(C)c1C(=O)COC(=O)c1cc2ccccc2cc1O | -4.27%

Row | SMILES | inhibition
28 | c1csc(-c2nc3c4ccccc4c4ccccc4c3[nH]2)c1 | 39.3%
29 | Cc1ccc(-n2sc3ccccc3c2=O)cc1S(=O)(=O)N1CCCCC1 | 90.5%
30 | CCc1ccc(OCC2c3cc(OC)c(OC)cc3CCN2C(=S)NC)cc1 (centres undefined) | 20.6%
31 | c1ccc(-c2cc(-c3nc4ccccc4[nH]3)c3ccccc3n2)cc1 | 39.9%
32 | Cc1cc(NC(=S)N(Cc2ccc(Br)cc2)Cc2ccc(C(=O)O)cc2)ccc1Cl | 5.61%
33 | Cc1sc(NC(=O)c2ccco2)c(C(c2ccc(F)cc2)N2CCN(C)CC2)c1C (centres undefined) | 1.52%
34 | O=C1/C(=C/Nc2ccc3c(c2)OCO3)CCc2ccccc21 | 39.1%
35 | S=C(NCC1CCCCC1)Nc1ccc(Oc2ccccc2)cc1 | 42.3%
36 | COc1ccccc1/C(C)=N/NC(=S)NCc1ccccc1 | 59.1%
37 | C/C(CCc1ccc2c(c1)OCO2)=N\NC(=S)NC(C)C | 26.7%
38 | O=C(OCn1ncc(Br)c(Br)c1=O)c1ccc(F)cc1 | 84.9%
39 | C=CCc1cccc(CNc2nc3ccccc3n2C(C)C)c1O | 14.2%
40 | Cc1ccc(N(C)C(=O)c2ccc3c(Cl)c4c(nc3c2)CCC4)cc1C | 27.3%
41 | O=[N+]([O-])c1cccc(N/N=C/c2cccc(O)c2O)c1 | 53.4%
42 | CC(C)(C)[C@@H]1C=C(C(=O)N2CCN(Cc3ccccc3)CC2)O[C@H](OCc2ccc(CO)cc2)C1 | 11.3%
43 | CCOC(=O)N1CCC(N2Cc3cccc(C(=O)Nc4ccc(CC)cc4)c3C2=O)CC1 | 50%
44 | Cc1cc(Br)c(OCc2ccc(C(=O)N/N=C3\CC4CC=CC34)cc2)c(Br)c1 (centres undefined) | 13.9%
45 | COC(=O)CCC(=O)COc1ccc(OC)cc1C#N | -11%
46 | Cc1ccc(Sc2ncnc3onc(C)c23)c(C)c1 | 38.5%
47 | O=C1NC(=S)S/C1=C\c1ccc(SCc2ccco2)o1 | 54.6%
48 | CCCS(=O)(=O)c1c(S(=O)(=O)CCC)c2cc(CC)ccn2c1C(=O)OC | 38.7%
49 | O=C(Nc1nnc(C2CC2)s1)c1cc(-c2ccccc2)nn1-c1ccccc1 | 6.37%
50 | O=C(NCCN1CCOCC1)c1ccc(=O)oc1 | 15.4%
51 | Nc1ccccc1Nc1cc(-c2ccccc2)nn1-c1cccc(Cl)c1 | 19.5%
52 | Cc1ccccc1C(=O)Oc1ccc(Sc2ccc(O)cc2)cc1 | 33%
53 | O=C(NNC(=S)NC(=O)C12CC3CC(CC(C3)C1)C2)c1ccncc1 | 57.1%
54 | CC(=O)N(Cc1cc(=O)[nH]c2ccccc12)c1cccc(C)c1 | 16.4%
